PubChem BioAssay AID2100 (National Center for Advancing Translational Sciences (NCATS), 2009)
About 1,200 (0.4%) of roughly 300,000 compounds were called active. The shares of active, inactive and inconclusive entries below differ from those in the screen. Calls follow the shape of the dose curve; as a rule, active = well fitted inhibition curve with a large enough effect; inconclusive = small, poorly fitted or top-dose-only effect, or another doubt; inactive = no such curve, though single readings can be large or run the other way. Potencies of inconclusive entries are doubtful fits and often do not repeat.

These compounds were tested against Lysosomal alpha-glucosidase (Homo sapiens) (UniProt P10253) (assay: qHTS Assay for Inhibitors and Activators of Human alpha-Glucosidase Cleavage of Glycogen). Conditions: recombinant GAA, glycogen substrate, Amplex Red glucose oxidase fluorescence; activity change, negative = inhibition: at 76.4 µM (top of the series) unless noted.
Method in brief: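 Recombinant human enzyme (4 nM); glycogen substrate; 37 C, 40 min, pH 5.0. Readout: coupled glucose oxidase/Amplex Red fluorescence.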
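For activity change, negative = inhibition in this document: 0% = full enzyme reaction and -100% = no-enzyme basal signal.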
Potency is read from the fitted curve at half-maximal effect.

Row | Compound | Potency | activity change, negative = inhibition
1 | CC1=NN(c2ccc(S(=O)(=O)O)cc2C)C(=O)C1 | inconclusive: 56.2 µM [inhibitor, partial curve] | –
2 | COc1ccc(C(=O)c2c(C(F)(F)F)oc3c2C(=O)c2ccccc2C3=O)cc1 | – | inactive: 2.26%
3 | O=C(NN=C1CCC(=NNC(=O)c2cccnc2)CC1)c1cccnc1 | inconclusive: 12.6 µM [inhibitor, partial curve] | –
4 | CC(NC(=O)CCc1cn(Cc2ccccc2Cl)c2ccccc12)c1ccccc1 (stereo not drawn) | – | inactive: -9.52% [at 76.3 µM]
5 | c1cc2c(cc1-c1csc(NNC3=NCCCCC3)n1)OCCO2 | inconclusive: 15.8 µM [inhibitor, partial curve] | –
6 | COc1ccc2cc(C(c3nnnn3CCc3ccccc3)N3CCC(O)CC3)c(=O)[nH]c2c1 (stereo not drawn) | inconclusive: 4.47 µM [inhibitor, single point] | –
7 | COc1ccccc1Oc1cn[nH]c1-c1ccc(O)cc1O | inconclusive: 50.1 µM [inhibitor, single point] | –
8 | COc1ccc(N2COC3c4cccc5cccc(c45)C32)cc1 (stereo not drawn) | inconclusive: 39.5 µM [inhibitor, partial curve, poor fit] | –
9 | Cc1ccc(NCC(=O)c2ccccc2)cc1Cl | inconclusive: 28.2 µM [activator, single point] | –
10 | CCCCCCn1cc(C(=O)O)c(=O)c2ccccc21 | – | inactive: 16.2%
11 | COc1ccc(-n2c(-c3cnccn3)n[nH]c2=S)cc1 | inconclusive: 35.2 µM [inhibitor, partial curve] | –
12 | CCOc1ccc(C2C(C#N)=C(N)SC(N)=C2C#N)cc1OCC | – | inactive: -2.61%
13 | Cc1ccc(NC(=S)NNC(=O)CCn2cc(C)cn2)cc1 | inconclusive: 39.5 µM [inhibitor, partial curve] | –
14 | O=C(CNC(=O)Cc1ccccc1)N=Nc1c(O)[nH]c2ccccc12 | – | inactive: -3.02%
15 | Nc1nonc1-n1nnc(C(=O)N/N=C/c2ccoc2)c1CSc1ccc(Cl)cc1 | inconclusive: 50.1 µM [inhibitor, single point] | –
16 | Cc1ccc2c(c1)c1c3n2CCN(C(=O)CN2CCN(C)CC2)C3CCC1 (stereo not drawn) | inconclusive: 12.6 µM [inhibitor, partial curve] | –
17 | O=C(O)c1cc(N/N=C/c2ccc(N3CCOCC3)cc2)ccc1Cl | inconclusive: 10 µM [inhibitor, full curve] | –
18 | CC(C)(C)C1CCC2(CC1)C(C#N)=C(SCC(=O)NC1CCCCC1)NC(=O)C2C#N (stereo not drawn) | inconclusive: 22.4 µM [inhibitor, partial curve] | –
19 | Cc1cc(C(=O)NNc2ccc(C)c(C)c2)no1 | inconclusive: 50.1 µM [inhibitor, single point] | –
20 | Cc1[nH]n(-c2cccc3ccccc23)c(=O)c1/C=N/c1sc2c(c1C#N)CCC2 | active: 20 µM | –
21 | CC(C)NC(=O)CSc1nccc(-c2cccs2)n1 | – | inactive: 5.85%
22 | O=C(O)CCCn1cc(NC(=O)c2cc(F)c(F)cc2Cl)cn1 | – | inactive: -0.0969%
23 | NC(=O)C1CCN(CC(=O)NCc2ccccc2)CC1 | inconclusive: 11.2 µM [inhibitor, single point] | –
24 | COc1ccc(N2CCCC2)c(NC(=O)COc2ccccc2)c1 | inconclusive: 17.8 µM [inhibitor, single point] | –
25 | C/C(CC(=O)Nc1ccc(Cl)cc1C(F)(F)F)=N\NC(N)=S | inconclusive: 35.5 µM [inhibitor, single point] | –

Row | Compound | Potency | activity change, negative = inhibition
26 | CC(=O)NC1=C(N(C)C2CCS(=O)(=O)C2)C(=O)c2ccccc2C1=O (stereo not drawn) | – | inactive: -0.0326%
27 | CC(C)c1nc2n[nH]c(N)c2c2c1CCC2 | inconclusive: 31.6 µM [inhibitor, single point] | –
28 | O=C(NCC(c1cccnc1)N1CCN(Cc2ccccc2)CC1)C(=O)Nc1cccc(F)c1 (stereo not drawn) | – | inactive: 2.05% [at 76.3 µM]
29 | CCNC(=S)NNC(=O)c1ccncc1 | inconclusive: 7.88 µM [inhibitor, full curve, poor fit] | –
30 | COc1ccc(Cl)cc1N(C(C)C(=O)NC1CCCC1)S(C)(=O)=O (stereo not drawn) | – | inactive: -8.12%
31 | Cc1ccc(NC(=S)NC(=O)Cc2ccccc2)c(O)c1 | inconclusive: 5.62 µM [inhibitor, full curve] | –
32 | CC(C)n1cc(/C=N/Nc2ccc(C(=O)O)cc2)c2ccccc21 | inconclusive: 10 µM [inhibitor, single point] | –
33 | C/C(Cn1cnc([N+](=O)[O-])n1)=N\NC(=O)c1ccc(O)cc1O | inconclusive: 7.94 µM [inhibitor, partial curve] | –
34 | COC(=O)c1c(NC(NC(=O)C(C)C)C(Cl)(Cl)Cl)sc2c1CCC2 (stereo not drawn) | inconclusive: 50.1 µM [inhibitor, single point] | –
35 | O=C(CSc1nc2ccccc2n1Cc1cccc(Cl)c1)N1CCN(c2ccc(F)cc2)CC1 | – | inactive: -3.98% [at 76.3 µM]
36 | Cn1c(=O)c2sccc2n2c(CCCC(=O)Nc3ccc(F)c(F)c3)nnc12 | active: 2 µM | –
37 | O=C(NC(=S)Nc1ccccc1O)c1ccccc1Cl | inconclusive: 25.1 µM [inhibitor, single point] | –
38 | CCc1cc(-c2n[nH]c(=S)n2C(C)c2ccccc2)cs1 (stereo not drawn) | inconclusive: 25.1 µM [inhibitor, partial curve] | –
39 | CCCS(=O)(=O)n1nc(-c2ccc(C)cc2)cc1N | inconclusive: 447 µM [inhibitor, partial curve] | –
40 | Cn1c(CNc2ccccc2O)nc2ccccc21 | active: 14 µM | –
41 | O=c1[nH]c(=S)[nH]c2[nH]c(=S)[nH]c12 | active: 39.8 µM | –
42 | CC(C)C(=O)Nc1ccc(C(=O)NNC(=S)NC(=O)c2ccco2)cc1 | inconclusive: 28.2 µM [inhibitor, single point] | –
43 | Cc1ccc(NCC(=O)NNC2=NCCC2)c(C)c1 | inconclusive: 3.52 µM [inhibitor, partial curve] | –
44 | CCOC(=O)c1cc(-c2ccccc2)sc1N | inconclusive: 35.5 µM [inhibitor, partial curve] | –
45 | O=C(NNc1ccccc1C(F)(F)F)c1cccs1 | inconclusive: 50.1 µM [inhibitor, single point] | –
46 | Cc1c(/C=C/C(=O)c2ccccc2)cnn1C | – | inactive: 11.9%
47 | O=C(COc1ccccc1)NNc1nc2ccccc2s1 | inconclusive: 14.1 µM [inhibitor, partial curve] | –
48 | Cc1cccc(Nc2c([N+](=O)[O-])c(=O)n(C)c3ccccc23)c1 | – | inactive: 10.1%
49 | CCOc1ccc(NC(=S)Nc2ccc(OC)cc2)cc1 | inconclusive: 17.8 µM [inhibitor, partial curve] | –
50 | Cc1nnc(C)c2c(C)n(-c3ccccc3N)c(C)c12 | inconclusive: 31.6 µM [activator, partial curve] | –

Row | Compound | Potency | activity change, negative = inhibition
51 | Oc1cccc(/C=N/Nc2cc(N3CCCC3)nc(N3CCCC3)n2)c1 | – | inactive: -2.7%
52 | O=C(NNS(=O)(=O)c1ccccc1)C1CC(c2cccnc2)=NO1 (stereo not drawn) | inconclusive: 44.7 µM [inhibitor, single point] | –
53 | COc1ccc(NC(=S)N2CCCC(c3nc4ccc(C)cc4[nH]3)C2)c(OC)c1 (stereo not drawn) | active: 15.7 µM | –
54 | Oc1c(Br)cc(/C=N/NC(=S)NCC2CCCO2)cc1Br (stereo not drawn) | inconclusive: 31.6 µM [inhibitor, single point] | –
55 | c1ccc(CCn2nnnc2CN2CCc3ccccc32)cc1 | active: 31.6 µM | –
56 | CC(C)Sc1nc(N)c2c3c(sc2n1)CN(C)CC3 | inconclusive: 25.1 µM [activator, partial curve] | –
57 | O=C(NCCc1cn2ccccc2n1)c1cc(COc2c(F)cccc2F)on1 | inconclusive: 14.1 µM [inhibitor, partial curve] | –
58 | CCc1cccc(C)c1Nc1c(-c2cccs2)nc2ncccn12 | inconclusive: 28.2 µM [inhibitor, partial curve] | –
59 | CCCCn1c(SCC(=O)Nc2ccc3c(c2)OCO3)nc2c1c(=O)n(C)c(=O)n2C | – | inconclusive: 32.8% [activator]
60 | COc1cccc(-c2cc(=O)[nH][nH]2)c1 | inconclusive: 22.4 µM [inhibitor, partial curve] | –
61 | Cc1ccc(Cn2c(C)c3cnn(CC(=O)N4CCN(c5cc(C)ccc5C)CC4)c(=O)c3c2C)cc1 | – | inactive: 2.49% [at 76.3 µM]
62 | O=c1nc(/C=C/c2ccc(O)c(O)c2)oc2ccccc12 | active: 7.08 µM | –
63 | CCSc1n[nH]c(=S)s1 | inconclusive: 25.1 µM [inhibitor, single point] | –
64 | CN(Cc1ccccc1)C(=O)c1ccccc1NC(=O)c1ccco1 | inconclusive: 8.91 µM [inhibitor, full curve, poor fit] | –
65 | Cc1ccc(S(=O)(=O)Nc2ccc(O)c(Sc3ncn[nH]3)c2)cc1 | inconclusive: 3.14 µM [inhibitor, full curve] | –
66 | COc1ccc(-c2[nH]c(-c3ccc(C)cc3)nc2SCC(=O)NCC2CCCO2)cc1 (stereo not drawn) | – | inactive: 15.4% [at 76.3 µM]
67 | CCOc1cc(C2CC(=O)c3c(ccc4ccccc34)N2)ccc1O (stereo not drawn) | inconclusive: 11.2 µM [inhibitor, full curve, poor fit] | –
68 | CCOC(=O)N1CCN(C(=O)CSc2ccc3nnc(-c4ccccn4)n3n2)CC1 | inconclusive: 3.55 µM [inhibitor, partial curve] | –
69 | CN(C)c1ccc(N/C=C/C(=O)C(C)(C)C)cc1 | inconclusive: 14.1 µM [inhibitor, partial curve] | –
70 | COc1cccc(C(=O)NCc2cn3cccc(C)c3n2)c1 | – | inactive: 9.31% [at 76.3 µM]
71 | CCCC(=O)Nc1ccc(-c2csc(NNC(C)=O)n2)cc1 | inconclusive: 14.1 µM [inhibitor, partial curve] | –
72 | CC(C)(C)CC(=O)Nc1ccc(Nc2ccccc2)cc1 | inconclusive: 19.8 µM [inhibitor, single point] | –
73 | Cc1sc(N/N=C/C=C/c2ccccc2)nc1-c1ccccc1 | inconclusive: 39.8 µM [inhibitor, partial curve] | –
